Experimental data: PubChem BioAssay AID504333 (National Center for Advancing Translational Sciences (NCATS), 2011)
“And” between values parts separate entries of the source, which are not always exact repeats. Equal entries are not always repeated. Out of some 360,000 compounds screened, about 16,000 (4.4%) were called active. The inconclusive results got no clear call from the source; some entries with a clear call stand among them for comparison. Calls follow the shape of the dose curve; as a rule, active = well fitted inhibition curve with a large enough effect; inconclusive = small, poorly fitted or top-dose-only effect; inactive = no such curve, though single readings can be large or run the other way. A potency beside an inconclusive call is a rough fit, not a confirmed value.

Molecular target: Bromodomain adjacent to zinc finger domain protein 2B (Homo sapiens) (UniProt Q9UIF8)
Assay: qHTS Assay for Inhibitors of BAZ2B; also: nearly all actives have a fitted effect of over 60% in size
Conditions: AlphaScreen BAZ2B-H3K14Ac peptide displacement; activity change, negative = inhibition: at 114 µM (top of the series) unless noted
Summary of the method: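 Complex of BAZ2B and biotin-H3K14Ac (50 nM apiece) forms over 30 min at RT, then faces library compounds up to 110 uM for another 30 min; AlphaScreen beads added, 20 min dark incubation, luminescence read.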
% is scaled to controls: 0 for no effect and ±100 for the full control effect; potency is read from the fitted curve at half-maximal effect; tags tell the direction and shape of the fitted curve.

Chain of UniProt Q9UIF8 (Q9UIF8 whole entry, looked up, the tested form may be a part): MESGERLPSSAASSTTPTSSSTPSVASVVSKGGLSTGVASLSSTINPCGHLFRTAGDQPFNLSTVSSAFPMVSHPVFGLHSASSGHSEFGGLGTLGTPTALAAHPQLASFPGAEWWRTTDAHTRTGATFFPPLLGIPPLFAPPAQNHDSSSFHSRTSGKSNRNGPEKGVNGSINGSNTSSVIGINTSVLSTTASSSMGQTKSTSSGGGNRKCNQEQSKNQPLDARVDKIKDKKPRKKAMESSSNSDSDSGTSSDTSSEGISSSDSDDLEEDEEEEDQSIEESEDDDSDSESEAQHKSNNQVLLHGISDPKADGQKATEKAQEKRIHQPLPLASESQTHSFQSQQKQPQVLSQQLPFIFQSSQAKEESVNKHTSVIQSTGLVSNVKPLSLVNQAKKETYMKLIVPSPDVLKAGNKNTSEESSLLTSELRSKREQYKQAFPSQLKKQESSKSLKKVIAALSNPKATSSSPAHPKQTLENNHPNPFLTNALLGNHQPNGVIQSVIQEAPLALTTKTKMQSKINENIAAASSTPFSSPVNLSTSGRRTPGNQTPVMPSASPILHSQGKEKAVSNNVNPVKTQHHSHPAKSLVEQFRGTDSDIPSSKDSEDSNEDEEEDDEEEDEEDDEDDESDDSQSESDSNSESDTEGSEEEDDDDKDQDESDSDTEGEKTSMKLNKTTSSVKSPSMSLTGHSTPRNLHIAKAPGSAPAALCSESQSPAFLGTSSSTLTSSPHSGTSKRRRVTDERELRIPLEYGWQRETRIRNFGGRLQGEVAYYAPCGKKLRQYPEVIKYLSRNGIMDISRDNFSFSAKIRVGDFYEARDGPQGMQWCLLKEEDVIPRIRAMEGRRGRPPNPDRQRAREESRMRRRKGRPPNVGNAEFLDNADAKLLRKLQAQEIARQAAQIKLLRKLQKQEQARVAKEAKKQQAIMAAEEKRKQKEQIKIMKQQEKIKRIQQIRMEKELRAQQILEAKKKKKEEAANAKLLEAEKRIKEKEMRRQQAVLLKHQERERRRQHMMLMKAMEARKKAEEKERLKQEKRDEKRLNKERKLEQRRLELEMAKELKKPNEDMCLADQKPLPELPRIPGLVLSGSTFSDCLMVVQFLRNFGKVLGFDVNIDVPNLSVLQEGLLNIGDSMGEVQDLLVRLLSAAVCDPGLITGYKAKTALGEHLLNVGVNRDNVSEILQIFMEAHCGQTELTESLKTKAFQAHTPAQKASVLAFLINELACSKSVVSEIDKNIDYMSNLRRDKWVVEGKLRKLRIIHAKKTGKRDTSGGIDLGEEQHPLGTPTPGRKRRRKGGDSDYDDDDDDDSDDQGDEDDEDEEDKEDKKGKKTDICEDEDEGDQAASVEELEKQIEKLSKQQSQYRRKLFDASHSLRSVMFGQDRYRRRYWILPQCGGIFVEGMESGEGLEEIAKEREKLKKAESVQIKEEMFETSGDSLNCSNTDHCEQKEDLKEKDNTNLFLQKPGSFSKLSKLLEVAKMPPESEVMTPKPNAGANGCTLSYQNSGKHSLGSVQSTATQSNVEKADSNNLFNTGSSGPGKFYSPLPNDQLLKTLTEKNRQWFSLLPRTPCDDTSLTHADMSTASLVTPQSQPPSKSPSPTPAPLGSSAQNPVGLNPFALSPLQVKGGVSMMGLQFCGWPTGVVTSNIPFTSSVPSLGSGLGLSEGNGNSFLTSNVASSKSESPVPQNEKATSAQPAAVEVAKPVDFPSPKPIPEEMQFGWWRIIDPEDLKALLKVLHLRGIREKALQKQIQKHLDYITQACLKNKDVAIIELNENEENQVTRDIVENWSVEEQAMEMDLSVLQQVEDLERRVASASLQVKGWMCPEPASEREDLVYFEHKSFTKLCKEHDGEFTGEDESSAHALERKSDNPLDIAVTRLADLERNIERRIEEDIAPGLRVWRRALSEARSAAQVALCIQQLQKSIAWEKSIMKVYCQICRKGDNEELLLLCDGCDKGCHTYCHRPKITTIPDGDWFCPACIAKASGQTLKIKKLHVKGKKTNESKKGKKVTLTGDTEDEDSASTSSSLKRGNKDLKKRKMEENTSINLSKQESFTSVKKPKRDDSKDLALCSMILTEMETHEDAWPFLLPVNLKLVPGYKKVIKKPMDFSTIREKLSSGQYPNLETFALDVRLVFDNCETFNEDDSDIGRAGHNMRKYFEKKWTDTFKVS

Question: With `Oc1ccc(/C=N/Nc2ncc(Br)cn2)c(O)c1` as the compound, how does the Potency read?
Answer: active: 14.1 µM

Question: How did the Potency turn out when `CCc1nnc(NC2=NCCC2)s1` was run?
Answer: inconclusive: 89.1 µM [inhibitor, single point]

Question: How did the Potency turn out when `CC(C)CN1C=C2C(=O)C(C)(OC(=O)C3CCCC3)C(=O)C=C2C=C1c1ccsc1` (stereo unspecified) was run?
Answer: inconclusive: 56.2 µM [inhibitor, partial curve]

Question: How did the Potency turn out when `c1ccc(Nc2cccc(Nc3ccccc3)n2)cc1` was run?
Answer: active: 44.7 µM

Question: With `CC(C)(C)OC(=O)N1CCC(NC(=O)c2nc[nH]c2C(=O)NC2CCN(C(=O)OC(C)(C)C)CC2)CC1` as the compound, how does the Potency read?
Answer: inconclusive: 89.1 µM [inhibitor, single point]

Question: How did the Potency turn out when `COc1ccc(-c2cn(-c3ccccc3)c(=S)[nH]2)cc1OC` was run?
Answer: inconclusive: 50.1 µM [inhibitor, partial curve]

Question: With `CC(=O)c1cn(S(=O)(=O)c2ccccc2)c2ccccc12` as the compound, how does the “activity change, negative = inhibition” value read?
Answer: inactive: 3.99%

Question: With `Cc1cc(-c2nnc(SCC(=O)Nc3cccc(Cl)c3)n2N)n[nH]1` as the compound, how does the Potency read?
Answer: active: 56.2 µM

Question: How did the Potency turn out when `CC(C)NC(=O)c1nn2c(C(F)(F)F)cc(-c3ccco3)nc2c1Cl` was run?
Answer: inconclusive: 79.4 µM [inhibitor, single point]

Question: `Cn1cccc1/C=N\NC(=O)Cc1ccc(Br)c2ccccc12` was tested. Which “activity change, negative = inhibition” value did it give?
Answer: inactive: -14.1%

Question: How did the Potency turn out when `CCOc1cc(-c2sc(Nc3ccccc3)n[n+]2C)ccc1OC` was run?
Answer: inconclusive: 79.4 µM [inhibitor, single point]

Question: `O=C(c1ccc2nc(N3CCCCC3)sc2c1)N1CCN(Cc2ccc3c(c2)OCO3)CC1` was tested. Which Potency did it give?
Answer: inconclusive: 50.1 µM [inhibitor, partial curve]

Question: For `COc1ccc(N(C(=O)C2CSC(=O)C2)C(C(=O)NC(C)(C)C)c2ccncc2)cc1` (stereo unspecified), which “activity change, negative = inhibition” value is on record?
Answer: inactive: 6.51%

Question: For `COc1ccc(CCNC(=O)c2cc(Cl)nc3ccccc23)cc1`, which Potency is on record?
Answer: inconclusive: 7.94 µM [inhibitor, partial curve]

Question: Which Potency does the source give for `CC(=Nc1ccccc1)C1=C(O)CSC1=O` here?
Answer: inconclusive: 35.5 µM [inhibitor, partial curve]

Question: With `C=CCOc1ccccc1CN1CCSCC1` as the compound, how does the Potency read?
Answer: active: 56.2 µM

Question: With `CN(C(=O)CN1CCC(NC(=O)C2CCCCC2)CC1)C1CCCCC1` as the compound, how does the Potency read?
Answer: inconclusive: 89.1 µM [inhibitor, single point]

Question: Which Potency does the source give for `CS(=O)(=O)C1=NN2C(=N)/C(=C\c3ccc(OC(=O)c4ccco4)cc3)C(=O)N=C2S1` here?
Answer: active: 50.1 µM

Question: With `Cc1cccc(NC(=O)CN2C(=O)C(c3ccccc3)=NC23CCC(C)CC3)c1` (stereo unspecified) as the compound, how does the “activity change, negative = inhibition” value read?
Answer: inactive: -1.25%

Question: Which Potency does the source give for `COc1ccc(OC)c2sc(N(CCN(C)C)C(=O)c3ccc4ccccc4c3)nc12` here?
Answer: inconclusive: 22.4 µM [inhibitor, single point]

Question: `COc1ccc(-n2nc3cc(C)c(NC(=O)c4ccc(-c5ccc(Br)cc5)o4)cc3n2)cc1` was tested. Which “activity change, negative = inhibition” value did it give?
Answer: inactive: 4.84%

Question: For `CNCCc1ccccn1`, which Potency is on record?
Answer: inconclusive: 56.2 µM [inhibitor, partial curve, poor fit]

Question: Which Potency does the source give for `COc1ccc(-c2cc(C(F)(F)F)nc(N3CCN(C)CC3)n2)cc1` here?
Answer: inconclusive: 50.1 µM [inhibitor, partial curve]

Question: With `Cc1cc(F)ccc1Oc1cc(NN2CCCCC2)c([N+](=O)[O-])cc1[N+](=O)[O-]` as the compound, how does the Potency read?
Answer: inconclusive: 8.91 µM [inhibitor, full curve]

Question: How did the Potency turn out when `CCN(CC)c1ccc(NC(=O)CN2CCN(c3ccccc3F)CC2)cc1` was run?
Answer: active: 31.6 µM and active: 39.8 µM

Question: For `CC1C(=O)N(Cc2ccc([N+](=O)[O-])cc2)c2ccccc2N1C(=O)C1CC1` (stereo unspecified), which “activity change, negative = inhibition” value is on record?
Answer: inactive: -22.4%

Question: Which Potency does the source give for `CSCCOC(=O)C1=C(C)Nc2ccc(C)cc2S1` here?
Answer: active: 44.7 µM

Question: Which Potency does the source give for `CCOc1ccc(C2=NC(c3cccs3)=Nc3ccc(CC)cc3N2)cc1OCC` here?
Answer: active: 10 µM

Question: With `Cc1ccc(-c2ccc(CCC(=O)O)n2NC(=O)c2cccs2)cc1` as the compound, how does the Potency read?
Answer: active: 11.2 µM

Question: With `CCc1ccccc1NC(=O)CNC(=O)c1cc(C2CC2)nn1-c1ccccc1` as the compound, how does the “activity change, negative = inhibition” value read?
Answer: inactive: 21.3%

Question: `Cc1ccc(CCNC(=O)c2ccc3[nH]c(C)c(C)c3c2)cc1` was tested. Which Potency did it give?
Answer: inconclusive: 39.8 µM [inhibitor, partial curve]

Question: With `Cc1cc(C)cc(-n2cnc3cc(C(=O)NC4CCCCCC4)ccc32)c1` as the compound, how does the “activity change, negative = inhibition” value read?
Answer: inactive: -14.3%

Question: With `CC1CN(C(=O)c2ccc(COc3ccc4ccccc4c3)o2)CC(C)O1` (stereo unspecified) as the compound, how does the Potency read?
Answer: inconclusive: 89.1 µM [inhibitor, partial curve, poor fit]

Question: For `NC(=O)C1CCN(C(c2ccccc2Cl)c2nnnn2CC2CCCO2)CC1` (stereo unspecified), which Potency is on record?
Answer: inconclusive: 89.1 µM [inhibitor, single point]

Question: For `Cn1cc(CN(CCCN2CCOCC2)C(=S)Nc2cccc(Cl)c2)c2ccccc21`, which Potency is on record?
Answer: inconclusive: 39.8 µM [inhibitor, full curve]

Question: For `COc1ccc(CCNC(=O)c2cc3n(n2)CCCN(Cc2ccc(C)cc2)C3=O)cc1OC`, which Potency is on record?
Answer: inconclusive: 56.2 µM [inhibitor, partial curve]

Question: `c1csc(-c2nn3c(Cn4cnc5ccccc54)nnc3s2)c1` was tested. Which “activity change, negative = inhibition” value did it give?
Answer: inactive: 2.04%

Question: For `COc1ccccc1CNC(=S)Nc1ccc(F)cc1`, which Potency is on record?
Answer: inconclusive: 3.98 µM [inhibitor, single point]

Question: Which Potency does the source give for `CCCC1=Nc2cc(C(=O)NCc3ccco3)ccc2Sc2ccccc21` here?
Answer: inconclusive: 44.7 µM [inhibitor, partial curve]

Question: `CCCN(CC(=O)Nc1ccccc1C)C(=O)COc1ccc2c(c1)CCC2` was tested. Which “activity change, negative = inhibition” value did it give?
Answer: inactive: -7.17%

Question: `CCOc1cc(/C=C2\C(=O)N(c3cccc(C(=O)O)c3)N=C2C(F)(F)F)ccc1OCC(=O)Nc1ccccc1OC` was tested. Which Potency did it give?
Answer: active: 50.1 µM

Question: How did the Potency turn out when `O=C(NCCN1CCN(c2cccc(Cl)c2)CC1)c1ccc(CSc2nc3ccncc3[nH]2)cc1` was run?
Answer: inconclusive: 25.1 µM [inhibitor, full curve]

Question: How did the Potency turn out when `CCOCCCn1c(=S)[nH]c2cc(C(=O)N3CCOCC3)ccc2c1=O` was run?
Answer: inconclusive: 100 µM [inhibitor, single point]

Question: How did the Potency turn out when `Cc1ccc(C)c(-n2cc(CNCCCn3cccn3)c(-c3ccccc3)n2)c1` was run?
Answer: inconclusive: 89.1 µM [inhibitor, single point]

Question: For `N#Cc1nc(Cc2ccccc2)oc1N1CCN(c2cccc(Cl)c2)CC1`, which Potency is on record?
Answer: inconclusive: 7.94 µM [inhibitor, full curve]

Question: How did the “activity change, negative = inhibition” value turn out when `Clc1ccc(-c2ccc(C=Nc3ccc(N4CCOCC4)cc3)o2)cc1` was run?
Answer: inactive: -29.1%
